Measurements as given in PubChem BioAssay AID886 (National Center for Advancing Translational Sciences (NCATS), 2007).
Several values for one entry are separate records, joined by “and”; a condition that tells them apart may be missing. Equal values may be shown once. Hit rate of the full screen: of about 73,000 compounds, about 2,500 (3.4%) were called active. The shares of active, inactive and inconclusive entries below differ from those in the screen. The call rests on the fitted dose curve; in most records, active means well fitted inhibition curve with a large enough effect; inconclusive means small, poorly fitted or top-dose-only effect; inactive means no such curve, though single readings can be large or run the other way. Potencies of inconclusive entries are doubtful fits and often do not repeat. A structure can be active in one record and inactive in another.

Target: 3-hydroxyacyl-CoA dehydrogenase type-2 (Homo sapiens) (UniProt Q99714)
UniProt Q99714, sequence (Q99714 whole entry, looked up): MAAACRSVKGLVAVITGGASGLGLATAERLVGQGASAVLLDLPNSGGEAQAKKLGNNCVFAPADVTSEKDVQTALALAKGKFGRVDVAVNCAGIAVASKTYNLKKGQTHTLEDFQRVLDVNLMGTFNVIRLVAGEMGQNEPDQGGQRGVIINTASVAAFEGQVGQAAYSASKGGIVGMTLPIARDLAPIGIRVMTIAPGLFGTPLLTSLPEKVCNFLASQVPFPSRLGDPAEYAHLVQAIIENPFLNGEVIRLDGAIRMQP
UniProt Q99714, sequence (Q99714 whole entry, looked up): as above
Test: qHTS Assay for Inhibitors of HADH2 (Hydroxyacyl-Coenzyme A Dehydrogenase, Type II); further: nearly all actives have a fitted effect of over 60% in size
Details: recombinant HADH2, NADH fluorescence, beta-hydroxybutyryl-CoA; activity change, negative = inhibition: at 57.1 µM (top of the series)
Method in brief: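 E. coli-expressed His-tagged HADH2 tested at 20 nM in alkaline Tris buffer (pH 9.0); oxidation of 90 uM beta-hydroxybutyryl-CoA with 1 mM NAD+ tracked fluorimetrically for 4 min.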
On the % scale 0 is the no-effect control and ±100 the full control effect; potency means the concentration at half of the fitted maximal effect; tags describe the fitted curve by direction and shape.

Row | Compound | activity change, negative = inhibition | Potency
1 | COc1cccc(Cn2c(=O)c(CCc3ccccc3)nc3cnc(N4CCOCC4)nc32)c1 | inactive: 4.92% | –
2 | CCOC(=O)C1CCN(C(=O)c2cccnc2)CC1 | inactive: 16.5% | –
3 | NC(=O)c1sc2nc(N3CCCCC3)c3c(c2c1N)CCCC3 | – | inconclusive: 6.31 µM [inhibitor, single point]
4 | COc1cccc2cc(C(=O)C3=C(O)C(=O)N(CCN4CCOCC4)C3c3cccs3)oc12 (stereo not given) | – | inconclusive: 31.6 µM [inhibitor, single point]
5 | O=C(COc1ccc(Br)cc1CO)Nc1ccc(F)cc1 | – | inconclusive: 3.98 µM [inhibitor, single point]
6 | N#Cc1cc2ccccc2nc1SCc1ccccn1 | inactive: -28.8% | –
7 | CN(C)C(=O)c1ccc(-c2cc(N(C)Cc3ccco3)ncn2)cc1 | inactive: -5.82% | –
8 | COc1ccc(NC(=O)c2cc(-c3cccs3)on2)cc1OC | – | inconclusive: 39.8 µM [inhibitor, single point]
9 | S=c1nc(-c2ccccc2)n(CCN2CCOCC2)c2c1CCCC2 | – | inconclusive: 0.794 µM [inhibitor, single point]
10 | CCOC(=O)Nc1nnc(CCc2ccccc2)s1 | – | active: 25.1 µM
11 | COCCn1c(=O)c(CCc2ccccc2)nc2cnc(N3CCN(C)CC3)nc21 | inactive: 4.04% | –
12 | CC(=O)Oc1ccc(C(=O)Nc2nccs2)cc1 | – | inconclusive: 25.1 µM [inhibitor, partial curve]
13 | C=CC1=C(C)C2=NC1=CC1=NC(=CC3=NC(=CC4=NC(=C2)C(C)=C4CCC(=O)O)C(CCC(=O)O)=C3C)C(C=C)=C1C.[Zn] | – | inconclusive: 2.51 µM [inhibitor, full curve]
14 | COc1ccc(CC(=O)Nc2ccc(-c3nnc(-c4ccccc4)o3)cc2)cc1 | – | inconclusive: 3.16 µM [inhibitor, full curve]
15 | COC(=O)c1nn(-c2ccc(-c3ccccc3)cc2)cc1O | – | inconclusive: 31.6 µM [inhibitor, single point]
16 | Cc1csc(SCC(=O)Nc2cccc3nsnc23)n1 | – | inconclusive: 31.6 µM [inhibitor, single point]
17 | CCOc1ccc(C2C(C#N)=C(N)SC(N)=C2C#N)c(OCC)c1 | – | inconclusive: 15.8 µM [inhibitor, partial curve]
18 | O=C(c1cccs1)N1CCC(c2nc3ccccc3s2)CC1 | – | inconclusive: 39.8 µM [inhibitor, single point]
19 | COc1cc(/C=C/C(=O)CC(=O)/C=C/c2ccc(O)c(OC)c2)ccc1O | – | active: 3.98 µM
20 | CC(C)(C)c1ccc(-c2nc(C#N)c(NCc3ccncc3)o2)cc1 | – | inconclusive: 39.8 µM [inhibitor, single point]
21 | O=C1C(SCCO)=C(SCCO)C(=O)c2ccccc21 | – | inconclusive: 3.16 µM [inhibitor, single point] and inconclusive: 63.1 nM [inhibitor, full curve, poor fit]
22 | CC(=O)Nc1nc2c(c3c1c(=O)oc1ccccc13)CC(C)CC2 (stereo not given) | – | inconclusive: 6.31 µM [inhibitor, full curve]
23 | CC(=O)OCC1OC(C#CCCCc2ccccc2)C=CC1OC(C)=O (stereo not given) | inactive: -21.4% [at 11.4 µM] and inactive: -18.3% [at 11.4 µM] | –
24 | Cc1ccc2c(c1)NC(=O)C(CC(=O)NCCCN1CCN(C3CCCCC3)CC1)O2 (stereo not given) | – | inconclusive: 25.1 µM [inhibitor, single point]

Row | Compound | activity change, negative = inhibition | Potency
25 | CCOC(=O)N1CCC2(CC1)C(C(=O)C13CC4CC(CC(C4)C1)C3)C2(C#N)C#N (stereo not given) | inactive: -3.12% | –
26 | COc1cccc(N=Cc2ccc(O)cc2O)c1 | – | inconclusive: 15.8 µM [inhibitor, partial curve]
27 | COc1cc(C2c3c(-c4ccccc4)n[nH]c3C(=O)N2c2ccccc2)ccc1O (stereo not given) | – | inconclusive: 12.6 µM [inhibitor, partial curve]
28 | Cc1cc(=O)oc2cc(OCC(O)CN3CCN(c4ccc(F)cc4)CC3)ccc12 (stereo not given) | – | inconclusive: 15.8 µM [inhibitor, single point]
29 | CCOC(=O)CNc1nnc(SCC(=O)OCC)[nH]c1=O | inactive: -15.2% | –
30 | COc1ccc(NC(C)=O)cc1NC(=O)CSc1nnc(-c2ccccn2)n1C | inactive: 22.6% | –
31 | Cn1c(=O)c2[nH]c(CCCCC(=O)O)nc2n(C)c1=O | inactive: 11.4% [at 11.4 µM] | –
32 | COc1cc2c(cc1OC)CN(C(=O)CSc1nc(N)c(C#N)cc1C#N)CC2 | – | inconclusive: 10 µM [inhibitor, partial curve]
33 | COC(=O)c1c(NC(=O)c2ccc(Br)s2)sc2c1CCC2 | – | inconclusive: 31.6 µM [inhibitor, single point]
34 | COc1ccc(C2C3=C(CC(C)(C)CC3=O)Nc3n[nH]c(C)c32)cc1 (stereo not given) | – | inconclusive: 31.6 µM [inhibitor, single point]
35 | Cc1cccc2c(=O)cc(C)n(CC(=O)N3CCOCC3)c12 | inactive: 13.9% | –
36 | CCN1C(C)=C(C(=O)OC)C(c2ccccc2)N2C(=O)[C@@]3(C(=O)OC)O[C@@]12C1C(=O)N(C)C(=O)C13 (stereo not given in full) | inactive: 8.67% [at 11.4 µM] | –
37 | CCN(CC)c1ccc2cc(NC(=O)CCC(=O)O)c(=O)oc2c1 | – | inconclusive: 31.6 µM [inhibitor, single point]
38 | CCCn1cnc2c(c1=O)c1nc3ccccc3nc1n2CCc1ccccc1 | inactive: -16% | –
39 | COc1ccc(CNc2ncncc2-c2ccccc2C(F)(F)F)c(OC)c1 | inactive: -22.6% | –
40 | Cc1ccc(-c2nc3nc4ccccc4nc3n2Cc2ccco2)cc1 | – | inconclusive: 31.6 µM [inhibitor, single point]
41 | CCOC(=O)C1CCc2sc(N)c(C#N)c21 (stereo not given) | – | inconclusive: 25.1 µM [inhibitor, partial curve]
42 | Cc1cc2c(c(=O)o1)[C@@H](O)[C@H]1O[C@@H]1C2=O | – | active: 3.16 µM
43 | COc1ccccc1-c1nc(N(C)C)c2ccccc2n1 | – | inconclusive: 15.8 µM [inhibitor, partial curve]
44 | COc1ccc(-n2nnc3c(SCC(=O)c4ccccc4)ncnc32)cc1 | – | inconclusive: 25.1 µM [inhibitor, partial curve]
45 | CC(=O)Nc1nonc1-c1nc2ccccc2n1CCC#N | – | inconclusive: 31.6 µM [inhibitor, single point]
46 | COc1ccc2[nH]c3c(c2c1)CN(C)CC3 | – | active: 2 µM
47 | COc1ccc(C(=O)COc2ccc(NC(C)=O)cc2)cc1 | – | inconclusive: 3.16 µM [inhibitor, full curve, poor fit]
48 | COc1cccc(C2CC(=O)N3CN(c4cccc(Cl)c4C)CSC3=C2C#N)c1OC (stereo not given) | – | active: 1.58 µM

Row | Compound | activity change, negative = inhibition | Potency
49 | CCC(Sc1nc2sc(C(=O)OC)c(C)c2c(=O)n1N)C(=O)NCC1CCCO1 (stereo not given) | – | inconclusive: 25.1 µM [inhibitor, single point]
50 | C[C@@H]1c2cccc(O)c2C(O)=C2C(=O)[C@@]3(O)C(O)=C(C(N)=O)C(=O)[C@@H](N(C)C)[C@@H]3[C@@H](O)[C@@H]21 | – | active: 12.6 µM
51 | COc1ccc(OC)c2[nH]c(=O)c(CCNC(=O)C(C)C)cc12 | – | inconclusive: 31.6 µM [inhibitor, single point]
52 | CCOC(=O)c1sc2nc(N3CCOCC3)c3c(c2c1N)CCC3 | – | inconclusive: 3.16 µM [inhibitor, full curve]
53 | Nc1nc(CSCc2ccccc2)nc(N2CCOCC2)n1 | inactive: -10% | –
54 | COC(=O)c1ccc(N2CCOCC2)c(NC(=O)Nc2cccc(OC)c2)c1 | – | inconclusive: 7.94 µM [inhibitor, full curve]
55 | COc1ccc(NC(=O)c2cc(-c3ccc(OC)c(OC)c3)on2)cc1OC | inactive: -20.2% | –
56 | Cn1c(=O)c2cc(S(=O)(=O)NC(C(=O)Nc3cccnc3)c3ccccc3)ccc2n(C)c1=O (stereo not given) | – | inconclusive: 15.8 µM [inhibitor, partial curve]
57 | Clc1ccc(-n2nnnc2Sc2ncnc3sccc23)cc1 | – | active: 15.8 µM
58 | CN(C)C1CCN(C(=O)c2ccc(-n3c(=O)c(=O)[nH]c4ccccc43)cc2)C1 (stereo not given) | inactive: -9.6% | –
59 | COc1cc2c(=O)n(CC3CCCO3)c(=O)n(CC(=O)Nc3cccc(Cl)c3)c2cc1OC (stereo not given) | inactive: -7.91% | –
60 | Cc1nn2c(N3CCN(C(=O)c4ccco4)CC3)cc(C(C)(C)C)nc2c1-c1ccccc1 | – | inconclusive: 39.8 µM [inhibitor, single point]
61 | O=C1CCC(C(=O)OCC(=O)C23CC4CC(CC(C4)C2)C3)N1 (stereo not given) | – | inconclusive: 3.98 µM [inhibitor, single point]
62 | Cc1cc(SCC(=O)NC(=O)NCc2ccco2)nc2ccccc12 | – | inconclusive: 12.6 µM [inhibitor, partial curve]
63 | CNc1nc(-c2ccc3c(c2)OCO3)nc2ccccc12 | – | inconclusive: 31.6 µM [inhibitor, single point]
64 | Cn1c(=O)c(C(=O)NCCO)c(O)c2ccccc21 | inactive: -6.45% | –
65 | O=C(Nc1nccs1)c1cc2sccc2n1Cc1ccc(F)cc1 | – | inconclusive: 39.8 µM [inhibitor, single point]
66 | CCN1CCN(C(=O)CS(=O)Cc2nc(-c3ccc(OC)cc3)oc2C)CC1 (stereo not given) | – | inconclusive: 7.94 µM [inhibitor, single point]
67 | CCCCNC(=O)c1ccccc1NS(=O)(=O)c1ccc2c(c1)OCCO2 | – | inconclusive: 31.6 µM [inhibitor, single point]
68 | Cc1ccn2cc(-c3ccc(S(=O)(=O)N4CCOCC4)cc3)nc2c1 | – | active: 3.98 µM
69 | Nc1cc(S(=O)(=O)O)cc2ccc(S(=O)(=O)O)cc12 | – | inconclusive: 3.16 µM [inhibitor, partial curve]
70 | CCN(Cc1ccccc1)C(=O)CC1Oc2ccccc2NC1=O (stereo not given) | – | inconclusive: 31.6 µM [inhibitor, single point]
